The densities may have been worked out from excess volumes.
Assay: xn = mol fraction of the nth substance listed
Settings: 96.7 kPa

`CS(C)=O` + CC(=O)[O-].CCCCCCn1cc[n+](C)c1 showed a mass density (303.15 K, x2 = 0) of 1091 kg/m3, a mass density (308.15 K, x2 = 0) of 1086 kg/m3 and a mass density (313.15 K, x2 = 0) of 1081 kg/m3. For the same molecule, the mass density (318.15 K, x2 = 0) was 1076 kg/m3, the mass density (323.15 K, x2 = 0) was 1071 kg/m3 and the mass density (328.15 K, x2 = 0) was 1066 kg/m3. It also gave a mass density (338.15 K, x2 = 0) of 1056 kg/m3.
`CC(=O)[O-].CCCCCCn1cc[n+](C)c1` + CS(C)=O gave a mass density (303.15 K, x1 = 0.057) of 1083 kg/m3, a mass density (303.15 K, x1 = 0.187) of 1066 kg/m3 and a mass density (303.15 K, x1 = 0.257) of 1059 kg/m3. For the same molecule, the mass density (303.15 K, x1 = 0.341) was 1053 kg/m3, the mass density (303.15 K, x1 = 0.446) was 1044 kg/m3 and the mass density (303.15 K, x1 = 0.58) was 1035 kg/m3. The mass density (303.15 K, x1 = 0.757) was 1024 kg/m3, the mass density (303.15 K, x1 = 0.868) was 1019 kg/m3 and the mass density (303.15 K, x1 = 1) was 1014 kg/m3. For the same molecule, the mass density (308.15 K, x1 = 0.057) was 1079 kg/m3, the mass density (308.15 K, x1 = 0.341) was 1050 kg/m3 and the mass density (308.15 K, x1 = 0.446) was 1040 kg/m3. The mass density (308.15 K, x1 = 0.58) was 1031 kg/m3, the mass density (308.15 K, x1 = 0.757) was 1021 kg/m3 and the mass density (308.15 K, x1 = 0.868) was 1016 kg/m3. For the same molecule, the mass density (308.15 K, x1 = 1) was 1011 kg/m3, the mass density (313.15 K, x1 = 0.187) was 1058 kg/m3 and the mass density (313.15 K, x1 = 0.257) was 1051 kg/m3. The mass density (313.15 K, x1 = 0.341) was 1046 kg/m3, the mass density (313.15 K, x1 = 0.446) was 1036 kg/m3 and the mass density (313.15 K, x1 = 0.757) was 1017 kg/m3. It also gave a mass density (313.15 K, x1 = 0.868) of 1013 kg/m3, a mass density (313.15 K, x1 = 1) of 1008 kg/m3 and a mass density (318.15 K, x1 = 0.057) of 1070 kg/m3. For the same molecule, the mass density (318.15 K, x1 = 0.187) was 1054 kg/m3, the mass density (318.15 K, x1 = 0.257) was 1047 kg/m3 and the mass density (318.15 K, x1 = 0.341) was 1042 kg/m3. The mass density (318.15 K, x1 = 0.58) was 1024 kg/m3, the mass density (318.15 K, x1 = 0.868) was 1010 kg/m3 and the mass density (318.15 K, x1 = 1) was 1005 kg/m3. The mass density (323.15 K, x1 = 0.057) was 1065 kg/m3, the mass density (323.15 K, x1 = 0.187) was 1050 kg/m3 and the mass density (323.15 K, x1 = 0.257) was 1043 kg/m3. For the same molecule, the mass density (323.15 K, x1 = 0.341) was 1038 kg/m3, the mass density (323.15 K, x1 = 0.446) was 1029 kg/m3 and the mass density (323.15 K, x1 = 0.58) was 1020 kg/m3. It also gave a mass density (323.15 K, x1 = 0.757) of 1011 kg/m3, a mass density (323.15 K, x1 = 0.868) of 1006 kg/m3 and a mass density (323.15 K, x1 = 1) of 1002 kg/m3. The mass density (328.15 K, x1 = 0.057) was 1061 kg/m3, the mass density (328.15 K, x1 = 0.187) was 1046 kg/m3 and the mass density (328.15 K, x1 = 0.257) was 1039 kg/m3. It also gave a mass density (328.15 K, x1 = 0.341) of 1034 kg/m3, a mass density (328.15 K, x1 = 0.446) of 1025 kg/m3 and a mass density (328.15 K, x1 = 0.58) of 1017 kg/m3. For the same molecule, the mass density (328.15 K, x1 = 0.757) was 1007 kg/m3, the mass density (328.15 K, x1 = 0.868) was 1003 kg/m3 and the mass density (328.15 K, x1 = 1) was 999 kg/m3. For the same molecule, the mass density (333.15 K, x1 = 0.057) was 1056 kg/m3, the mass density (333.15 K, x1 = 0.187) was 1042 kg/m3 and the mass density (333.15 K, x1 = 0.257) was 1035 kg/m3. It also gave a mass density (333.15 K, x1 = 0.58) of 1013 kg/m3, a mass density (333.15 K, x1 = 0.757) of 1004 kg/m3 and a mass density (333.15 K, x1 = 0.868) of 1000 kg/m3. It also gave a mass density (333.15 K, x1 = 1) of 995 kg/m3, a mass density (338.15 K, x1 = 0.057) of 1052 kg/m3 and a mass density (338.15 K, x1 = 0.257) of 1031 kg/m3. For the same molecule, the mass density (338.15 K, x1 = 0.341) was 1027 kg/m3, the mass density (338.15 K, x1 = 0.446) was 1018 kg/m3 and the mass density (338.15 K, x1 = 0.58) was 1010 kg/m3. For the same molecule, the mass density (338.15 K, x1 = 0.868) was 996 kg/m3 and the mass density (338.15 K, x1 = 1) was 992.2 kg/m3.

Source: a compilation of properties of binary mixtures (doi:10.3390/app10238342)
